From paper PMC4336329 (PLoS ONE, 2015)
In all, about 310,000 compounds went through this assay and about 2,200 (0.71%) showed an effect of 50% or more. The effect is printed as a negative number. The list shows a part of the results.

These compounds were tested against human ether-à-go-go-related gene (hERG) potassium channel (human, UniProt Q12809) (assay: primary screen, population patch clamp on CHO cells stably expressing hERG).
Sequence of human ether-à-go-go-related gene (hERG) potassium channel (Q12809 whole entry, looked up): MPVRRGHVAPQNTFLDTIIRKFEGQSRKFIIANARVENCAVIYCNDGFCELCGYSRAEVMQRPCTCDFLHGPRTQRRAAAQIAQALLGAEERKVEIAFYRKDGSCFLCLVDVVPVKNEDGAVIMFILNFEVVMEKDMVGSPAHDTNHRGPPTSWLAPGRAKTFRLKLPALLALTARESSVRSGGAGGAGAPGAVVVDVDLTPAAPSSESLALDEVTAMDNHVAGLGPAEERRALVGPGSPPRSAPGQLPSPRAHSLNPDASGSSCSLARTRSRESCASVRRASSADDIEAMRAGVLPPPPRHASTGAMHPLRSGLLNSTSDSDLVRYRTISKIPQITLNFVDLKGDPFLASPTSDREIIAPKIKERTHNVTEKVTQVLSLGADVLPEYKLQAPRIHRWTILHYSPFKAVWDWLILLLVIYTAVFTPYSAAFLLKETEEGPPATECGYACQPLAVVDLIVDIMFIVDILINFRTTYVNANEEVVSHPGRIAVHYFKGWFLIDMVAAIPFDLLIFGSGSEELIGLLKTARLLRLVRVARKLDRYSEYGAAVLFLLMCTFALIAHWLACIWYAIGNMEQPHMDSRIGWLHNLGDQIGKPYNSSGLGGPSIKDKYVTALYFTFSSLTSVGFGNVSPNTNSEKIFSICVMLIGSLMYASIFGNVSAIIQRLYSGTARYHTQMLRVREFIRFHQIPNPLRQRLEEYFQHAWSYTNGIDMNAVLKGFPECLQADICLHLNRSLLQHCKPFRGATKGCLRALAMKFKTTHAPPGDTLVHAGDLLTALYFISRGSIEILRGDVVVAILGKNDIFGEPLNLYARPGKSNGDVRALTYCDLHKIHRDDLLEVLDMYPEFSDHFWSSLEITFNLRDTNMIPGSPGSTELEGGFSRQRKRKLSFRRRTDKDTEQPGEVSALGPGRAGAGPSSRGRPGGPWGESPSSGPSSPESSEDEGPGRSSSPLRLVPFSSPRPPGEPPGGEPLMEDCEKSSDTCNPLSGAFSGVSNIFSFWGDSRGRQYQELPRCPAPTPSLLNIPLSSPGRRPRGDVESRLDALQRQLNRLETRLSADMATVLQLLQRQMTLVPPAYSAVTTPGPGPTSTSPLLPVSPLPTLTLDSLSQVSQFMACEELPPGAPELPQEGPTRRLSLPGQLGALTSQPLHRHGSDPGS

Row | SMILES | hERG current change (%, negative = inhibition) at 1uM
1 | COc1cc(C(=O)NCC(c2cccs2)N2CCOCC2)c([N+](=O)[O-])cc1OC (stereo not drawn) | 15.5%
2 | Cc1nc(-c2ccc(NC(=O)C(C)(C)C)cc2)c(-c2ccccc2)o1 | 18.3%
3 | O=C(COc1cccc(NC(=O)c2ccco2)c1)c1ccccc1 | -9.91%
4 | CN(Cc1ccccc1)C(=O)COC(=O)c1cc(S(=O)(=O)N(C)C)ccc1N1CCCC1 | 9.99%
5 | CC1CN(C(=O)N2CCCCC2)CCN1C(=O)N1CCCCC1 (stereo not drawn) | 12.3%
6 | Cc1ccc(N(CC(=O)Nc2cc(Cl)ccc2Oc2ccccc2)S(C)(=O)=O)c(C)c1 | -0.252%
7 | NC(=O)CC(NC(=O)Cc1cccc2ccccc12)c1ccc(NC2CCCCC2)c([N+](=O)[O-])c1 (stereo not drawn) | 6.95%
8 | CCN(CC(=O)NC1CCS(=O)(=O)C1)S(=O)(=O)c1cc(C)ccc1C (stereo not drawn) | 11.1%
9 | CCC(C)(C)n1nnnc1C(c1ccc(OC)c(OC)c1)N1CCN(c2ccc(OC)cc2)CC1.Cl (stereo not drawn) | 1.26%
10 | COc1ccc(/C=N/NC(=O)c2nnn(-c3nonc3N)c2-c2cccc(OC)c2)cc1 | 19.7%
11 | CC(=O)C1=C(O)CC(C)(C)CC1=NCCc1nc2ccccc2[nH]1 | 2.13%
12 | C#CCOCCOCCOCCNc1nc(N2CCOCC2)nc(N2CCN(C(=O)[C@H](Cc3cc4ccccc4[nH]3)n3cc([C@@H](N)Cc4ccc(O)cc4)nn3)CC2)n1.Cl | 4.76%
13 | CC1(C)NC(=O)N(CC(=O)OCC(=O)Nc2cc(S(=O)(=O)N3CCCCC3)ccc2Cl)C1=O | 4.63%
14 | O=C(COc1ccc(Cl)cc1)N1CCN(c2ccc([N+](=O)[O-])c(N3CCOCC3)c2)CC1 | -4.68%
15 | COc1cccc(-n2c([S-])c(C(=O)Nc3ccc(C(F)(F)F)cc3)[n+]3ccccc23)c1 | 14%
16 | CC(C)(C)OC(=O)N[C@@H](C(=O)OC(C)(C)C)c1ccc2ccccc2c1 | 13.8%
17 | Cc1ccc(S(=O)(=O)/N=C2/NC(=O)/C(=C/c3cccnc3)S2)cc1 | 4.38%
18 | CCOC(=O)C(O)(c1ccc(NC(=O)NC2CCCCC2)cc1)C(F)(F)F (stereo not drawn) | 10.2%
19 | Cc1ccc(C(=O)N2CCN(S(=O)(=O)c3ccc(C(C)C)cc3)CC2)s1 | 0.414%
20 | Cc1nn(Cc2ccc(F)cc2)c2sc(C(=O)Nc3ccccc3N3CCOCC3)cc12 | 13.8%
21 | CCC(c1nc2ccccc2c(=O)n1-c1nc2ccccc2s1)N1C(=O)c2ccccc2C1=O (stereo not drawn) | 13.3%
22 | Cc1ccc(C(=O)NCCNC(=O)CN2CCOCC2)cc1 | 12.5%

Row | SMILES | hERG current change (%, negative = inhibition) at 1uM
23 | Cc1ccsc1/C=N/NC(=S)NCc1ccccc1 | 11.9%
24 | CC(C)(C)c1n[nH]c(=S)n(N)c1=O | 12.5%
25 | Cc1cc(S(=O)(=O)N2CCOCC2)ccc1OCC(=O)Nc1ccc(F)cc1 | -3.24%
26 | CCn1c(CCn2ccnc2C)n[nH]c1=S | -2.25%
27 | COc1cc(Nc2nnc(C)s2)c(Cl)cc1Cl | 10.5%
28 | COc1ccc(NC2CCCN(C(=O)CCc3cccc(Cl)c3)C2)cc1 (stereo not drawn) | 0.3%
29 | O=C(O)c1cccc2c1/C(=N/O)c1ccccc1-2 | 17.3%
30 | C[N+]1(C)C2CCC1CC(OC(=O)c1c[nH]c3ccccc13)C2.[I-] (stereo not drawn) | 11.3%
31 | CN(CC(=O)Nc1ccccc1C(F)(F)F)C(=O)c1ccccc1Sc1ccccc1C#N | 14.3%
32 | CS(=O)(=O)c1ccc(NC(=O)c2ccccc2-n2cnnn2)cc1 | 11.3%
33 | CCCOc1ccc(/C=N/Nc2cccc([N+](=O)[O-])c2)c(O)c1 | 11.8%
34 | CC(C)c1nc(SCC(=O)NC2CCCC2)c2ccccc2n1 | 11%
35 | CCc1ccc(/C=C2\SC(=S)N(CCCC(=O)Nc3ccccn3)C2=O)cc1 | 14.3%
36 | COc1ccccc1NC=C1C(=O)OC2(CCCCC2)OC1=O | 1.94%
37 | CC(C)c1ccc(NC(=O)N2CCCC2C(=O)Nc2ccc(-n3cnnn3)cc2)cc1 (stereo not drawn) | -5.97%
38 | CC1=CC2=C(OC1N(C)C)c1cccc3cccc(c13)C2=O (stereo not drawn) | 1.64%
39 | c1ccc(SSc2ccccc2)cc1 | 15.3%
40 | Cc1cc(NC(=O)Nc2cccc(Cl)c2)n(-c2ccccn2)n1 | 13.5%
41 | Cc1ccc2oc(C(=O)NCc3ncc(C)[nH]3)c(C)c2c1 | 9.29%
42 | O=C(c1ccc(-c2ccccc2)c(F)c1)C1CCCN(C(=O)c2cncs2)C1 (stereo not drawn) | 2.85%
43 | O=C(CNC(=S)N(CCCN1CCOCC1)Cc1cccs1)N1CCCCCC1 | -6.64%
44 | CN1CCN(C2=Cc3cc(Cl)ccc3Sc3cc(F)ccc32)CC1.CS(=O)(=O)O | 11.3%

Row | SMILES | hERG current change (%, negative = inhibition) at 1uM
45 | COc1ccc(S(=O)(=O)N2CCCC(C(=O)NC3CCCCC3)C2)cc1 (stereo not drawn) | 10.8%
46 | Cc1cc(C(=O)NNc2ccccc2F)no1 | 19.1%
47 | O=C(CN1C(=O)C2CC=CCC2C1=O)NCC(=O)Nc1ccc(F)c(F)c1 (stereo not drawn) | 12.9%
48 | O=C(NCCOc1ccccc1)C(=O)NCC1CCCO1 (stereo not drawn) | -0.956%
49 | Cc1nn(-c2ccccc2)c(C)c1/C=C/C(=O)OCC(=O)Nc1ncc(Cl)cc1Cl | 12.2%
50 | CCOC(=O)C(Cc1ccccc1)NS(=O)(=O)c1ccc(NC(C)=O)cc1 (stereo not drawn) | 23.9%
51 | COc1ccc(C)cc1NC(=O)c1cc(S(=O)(=O)N2CCOCC2)cn1C | 9.92%
52 | Cc1ccc2nc(NCc3ccccc3)[nH]c2c1 | 7.11%
53 | COCCn1nnnc1CN1CCN2CCCC2C1.Cl (stereo not drawn) | 9.2%
54 | COCCn1c(=NC(=O)/C=C/c2ccccc2)sc2cc(NC(C)=O)ccc21 | -6.98%
55 | Cc1nnc2n(-c3ccccc3)c(=O)c3c4c(sc3n12)CCCC4 | 6.27%
56 | COc1ccc2[nH]c(C(=O)NCCCN3CCCC3=O)c(C)c2c1 | 3.5%
57 | COCCOc1cc(NC(=O)CS(=O)CC(=O)N(C)C)c(Cl)cc1Cl (stereo not drawn) | 10.8%
58 | Cc1ccc(-n2nnnc2SCC(=O)c2c(N)n(C3CC3)c(=O)[nH]c2=O)c(C)c1 | -1.2%
59 | COc1ccc(CNC(=O)C(C)Sc2nc3ccccc3c(=O)n2CCCN2CCOCC2)cc1 (stereo not drawn) | -95%
60 | Nc1nc(NCC2CCCO2)nc(Nc2cccc(Cl)c2)c1[N+](=O)[O-] (stereo not drawn) | 6.56%
61 | COc1ccc(C(CNC(=O)c2oc3ccccc3c2C)N2CCCC2)cc1 (stereo not drawn) | 2.18%
62 | COc1ccc(N2CCN(C(=O)COc3ccc4c(C)cc(=O)oc4c3C)CC2)cc1 | 26.2%
63 | COCCn1c(SCC(=O)NC2CC2)nc2ccccc21 | 11.9%
64 | CC(NC(=O)Cn1cc([N+](=O)[O-])cn1)c1ccc(C(C)(C)C)cc1 (stereo not drawn) | 4.57%
65 | COc1cccc(NCc2cc3c(C(C)(C)C)nn(-c4ccccc4)c3[nH]c2=O)c1 | 14.2%
66 | Cc1ccc2c(c1)c1c(n2CC(O)Cn2nc(C)c(Br)c2C)C(=O)CCC1 (stereo not drawn) | 9.76%

Row | SMILES | hERG current change (%, negative = inhibition) at 1uM
67 | COc1ccc(C(=O)O/N=C(\N)c2ccccc2Cl)cc1OC | -0.118%
68 | COc1ccc(/C=C(\C#N)C(=O)OCC(=O)N(C)C2CCS(=O)(=O)C2)cc1 (stereo not drawn) | -5.18%
69 | COc1ccc(OC)c(S(=O)(=O)NCC(c2cccs2)N2CCc3ccccc3C2)c1 (stereo not drawn) | 0.694%
70 | CCN(CC)CCCNc1ncnc2ccccc12.Cl | 5.89%
71 | COc1ccccc1N1CCN(C(=O)CN(C2CCCCC2)S(C)(=O)=O)CC1 | 4.65%
72 | O=C(O)CCCN1C(=O)/C(=C\c2ccccc2OCc2ccccc2)SC1=S | 11.6%
73 | CCOc1ccc(NC(=O)Nc2ccc(Cc3ccncc3)cc2)cc1 | 15.9%
74 | O=C(ON=C1CCSCC1)c1ccccc1 | 1.48%
75 | COc1ccc(OC)c(C2=NS(=O)(=O)N(C)C(C(=O)Nc3ccc(F)cc3F)=C2)c1 | 14.9%
76 | Cc1cccc(C(=O)N/N=C/c2ccoc2)c1 | 12%
77 | CCOc1ccc(NC(=O)[C@@H](NC(=O)OCc2ccccc2)[C@@H](C)CC)cc1 | 13.8%
78 | Cc1ccc(CC(=O)Nc2cc([N+](=O)[O-])ccc2F)cc1 | 12.5%
79 | Cc1ccc[n+](C(C)C(=O)Nc2ccc([N+](=O)[O-])cc2C)c1.[Br-] (stereo not drawn) | 12.2%
80 | O=C(NC(=S)NCCC1=CCCCC1)c1cccnc1 | 0.308%
81 | O=C(/C=C/c1ccco1)c1cccnc1 | 12.3%
82 | O=C(CSc1nc(O)c(C2CCCCC2)c(=O)[nH]1)NCC1CCCO1 (stereo not drawn) | -2.86%
83 | Cc1ccc(NC(=O)CCOc2ccccc2)cc1 | 9.04%
84 | COc1ccc(Cc2nc(-c3ccc(Cl)cc3)no2)cc1 | 5.91%
85 | COCc1cc(C)nc(OCC(=O)N/N=C/c2ccc(OC)c(O)c2)c1C#N | 16.4%
86 | O=C(NCCCn1ccnc1)c1ccc(COc2ccccc2)o1 | -3.01%
87 | O=C(Cn1cnc2c(nnn2-c2ccc(F)cc2)c1=O)N1CCCC1 | -3.92%
